Source: PubChem BioAssay (Tox21)
Values joined by “and” are separate entries in the source; they are usually repeats but may differ in a detail not shown here. Identical values can stand only once. Inconclusive means that the source gave no clear call. Such entries were picked first, then a sample of the others. For some assays here: Where the call is inconclusive, the potency comes from a doubtful curve fit. More than one record can exist for a structure, and the calls need not agree. Active and inactive are the calls of the source. Unless noted, calls come from the whole dose curve; as a rule, active = well fitted curve in the direction sought with a large enough effect in the repeat runs; inconclusive = weak or mixed curves; inactive = no such curve, though single readings can be large; an effect the other way counts as inactive or inconclusive.

Key:
[1] = qHTS assay to identify small molecule antagonists of the androgen receptor (AR) signaling pathway using the MDA cell line in the presence of 0.5 nM R1881 - cell viability counter screen (AID 1259242); note: nearly all actives have a fitted effect of over 45% in size; note: potency is the fitted concentration of half-maximal effect
Summary of the method: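 R1881 at 0.5 nM final stimulated MDA-kb2 cells during 16 hr compound treatment at 37C. Cytotoxicity read: CellTiter-Fluor fluorescence after 30 min.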

[2] = qHTS assay to identify small molecule HDAC inhibitors - cell viability counter screen (AID 1259365); note: % is set by controls: 0 for no effect and ±100 for the full control effect; nearly all actives have a fitted effect of over 50% in size
Summary of the method: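 Wild-type HCT-116 cells were seeded at 1,500 per well, incubated overnight at 37 C, then exposed to compounds in DMSO for 2hr. Viability was read by CellTiter-Glo luminescence after 30min at room temperature.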

[3] = qHTS assay to identify small molecule agonists of the sonic hedgehog signaling (Shh) pathway - cell viability counter screen (AID 1259366); note: potency is the fitted concentration of half-maximal effect; nearly all actives have a fitted effect of over 50% in size
Summary of the method: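 NIH/3T3-derived 3T3 Gli1-Luc cells (stable Gli1-responsive firefly luciferase reporter) were seeded, rested 4 hr at 37 C/5% CO2, then exposed to compounds in DMSO for 24 hr; viability was read by CellTiter-Fluor fluorescence in the same wells.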

[4] = biological target: Estrogen receptor beta (Homo sapiens) (UniProt Q92731); test: qHTS assay to identify small molecule antagonists of the estrogen receptor beta (ER-beta) signaling pathway (AID 1259378; active = well fitted inhibition curve with a large enough effect in the signal ratio in the repeat runs, not every such curve was filed as active; inconclusive = weak or mixed curves, or effect the other way; inactive = no such curve, though single readings can be large or run the other way; the % refers to the signal ratio; note: potency is the fitted concentration of half-maximal effect; for activity, negative = inhibition: % is set by controls: 0 for no effect and ±100 for the full control effect); conditions: ER-beta-UAS-bla HEK293T, beta-lactamase FRET ratio, 16 h; activity, negative = inhibition: at 92.4 µM (top of the series) unless noted
Summary of the method: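 ER-beta-UAS-bla HEK293T (GripTite) cells in 2% charcoal-stripped FBS medium were preincubated 6 hr at 37C, dosed with compound, then stimulated with 1 nM E2 (final) for 16 hr; beta-lactamase reporter read by B/G FRET fluorescence after 2 hr substrate loading.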

[5] = qHTS assay to identify small molecule agonists of the androgen receptor (AR) signaling pathway in the presence of an antagonist - cell viability counter screen (AID 1259379); note: nearly all actives have a fitted effect of over 25% in size; note: potency is the fitted concentration of half-maximal effect
Summary of the method: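 A CellTiter-Fluor read-out measured viability of MDA-kb2 reporter cells (MMTV promoter with AR and GR response elements). Treatment: nilutamide 3.0uM final with compounds at 15 concentrations, 16 hr, 37C, 0% CO2.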

[6] = qHTS assay to identify small molecule agonists or antagonists of the thyroid stimulating hormone receptor (TSHR) signaling pathway - wild type cell line counter screen (AID 1259384; calls by dose curve; note: potency is the fitted concentration of half-maximal effect); conditions: HEK293 wild type, cAMP HTRF counter-screen; cAMP activity change: at 92.4 µM (top of the series), stronger effect = higher value unless noted
Summary of the method: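 Wild-type HEK293 cells were plated 18 h at 37 C/5% CO2, pin-dosed with compound plus Ro20-1724 medium, held 30 min at room temperature, then given cAMP-d2 and anti-cAMP-cryptate; fluorescence was read after 1 h. Fifteen concentrations, triplicate.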

[7] = qHTS assay to identify small molecule antagonists of the sonic hedgehog signaling (Shh) pathway (AID 1259369; calls by dose curve; note: nearly all actives have a fitted effect of over 45% in size; note: potency is the fitted concentration of half-maximal effect)
Summary of the method: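 Conditioned medium drives Shh signalling in 3T3Gli1-Luc cells; compounds in DMSO co-applied, 24hr at 37 C, then luciferase luminescence.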

[8] = qHTS assay to identify small molecule agonists of the sonic hedgehog signaling (Shh) pathway (AID 1259368; calls by dose curve; note: potency is the fitted concentration of half-maximal effect; nearly all actives have a fitted effect of over 15% in size)
Summary of the method: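 Mouse fibroblast (NIH/3T3) reporter cells with stably integrated Gli1-Luc were treated 24 hr with compound; firefly luciferase luminescence served as the read-out.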

[9] = biological target: Estrogen receptor beta (Homo sapiens) (UniProt Q92731); test: qHTS assay to identify small molecule agonists of the estrogen receptor beta (ER-beta) signaling pathway (AID 1259377; active = well fitted activation curve with a large enough effect in the signal ratio in the repeat runs, not every such curve was filed as active; inconclusive = weak or mixed curves, or effect the other way; the % refers to the signal ratio; note: potency is the fitted concentration of half-maximal effect); conditions: ER-beta-UAS-bla HEK293T, beta-lactamase FRET ratio, 16 h; activation: at 92.4 µM (top of the series) unless noted
Summary of the method: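 ER-beta-UAS-bla HEK293T (GripTite) cells carrying a UAS-driven beta-lactamase reporter, in medium with 2% charcoal-stripped FBS, were exposed to compounds for 16 hr at 37C; LiveBLAzer B/G FRET substrate was then added and fluorescence read after 2 hours at room temperature.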

[10] = qHTS assay to identify small molecule antagonists of the sonic hedgehog signaling (Shh) pathway - cell viability counter screen (AID 1259367); note: potency is the fitted concentration of half-maximal effect; nearly all actives have a fitted effect of over 55% in size
Summary of the method: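 NIH/3T3-derived Gli1-Luc reporter cells (2,000 per well) rested 4 hr at 37 C, then received DMSO compounds plus conditioned medium. After 23 hr of treatment, CellTiter-Fluor was added for 1 hr at 37C and fluorescence read.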

[11] = qHTS assay to identify small molecule agonists of the estrogen receptor beta (ER-beta) signaling pathway - cell viability counter screen (AID 1259380); note: potency is the fitted concentration of half-maximal effect; nearly all actives have a fitted effect of over 30% in size
Summary of the method: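 Cells used were ER-beta-UAS-bla HEK293T in medium with 2% charcoal-stripped FBS. They were treated for 16 hr at 37C. Viability came from CellTiter-Glo luminescence.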

[12] = biological target: Estrogen receptor (Homo sapiens) (UniProt P03372); test: qHTS assay to identify small molecule antagonists of the estrogen receptor alpha (ER-alpha) signaling pathway using the BG1 cell line in the presence of 0.1 nM 17-beta-estradiol (AID 1259244); note: nearly all actives have a fitted effect of over 50% in size; note: potency is the fitted concentration of half-maximal effect
Summary of the method: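 VM7Luc4E2; 4xERE-luciferase; 0.1 nM E2 final; 22 h co-incubation, 37C; ONE-Glo luminescence after 30 min at room temperature.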

[13] = qHTS assay to identify small molecule HDAC inhibitors (AID 1259364);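 note: wild-type HCT-116 cells with endogenous class I/II HDAC activity; potency is the fitted concentration of half-maximal effect; nearly all actives have a fitted effect of over 45% in size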
Summary of the method: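 Relative class I and II HDAC activity is taken from the luminogenic signal in HCT-116 cells, with compound exposure 2 hr and reagent development 30 min at room temperature.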

[14] = biological target: Androgen receptor (Homo sapiens) (UniProt P10275); test: qHTS assay to identify small molecule antagonists of the androgen receptor (AR) signaling pathway using the MDA cell line in the presence of 0.5 nM R1881 (AID 1259243); note: potency is the fitted concentration of half-maximal effect; nearly all actives have a fitted effect of over 50% in size
Summary of the method: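 We exposed MDA-kb2 cells to compounds under 0.5 nM R1881 stimulation for 16 hr at 37C and quantified MMTV-driven luciferase by luminescence.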

[15] = qHTS assay to identify small molecule phospholipidosis (PLD) inducers (AID 1259344; active = well fitted curve in the direction sought with a large enough effect; inconclusive = small, poorly fitted or top-dose-only effect, or another doubt; inactive = no such curve, though single readings can be large; an effect the other way counts as inactive or inconclusive; note: potency is the fitted concentration of half-maximal effect)
Summary of the method: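 HepG2 cells on collagen I, attached 4 h at 37 C, were co-treated with compound and LipidTOX Red dye for 24 h at 37 C, then fixed with paraformaldehyde plus Hoechst 33342 and imaged by high-content microscopy for phospholipid accumulation.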

[16] = qHTS assay to identify small molecule antagonists of the estrogen receptor beta (ER-beta) signaling pathway - cell viability counter screen (AID 1259382); note: potency is the fitted concentration of half-maximal effect; nearly all actives have a fitted effect of over 55% in size
Summary of the method: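 Agonist-stimulated (1nM E2) ER-beta-UAS-bla HEK293T cells are incubated with library compounds for 16 hr at 37C. Cell viability is then assessed in the reporter-assay wells by adding CellTiter-Glo and reading luminescence after 30 min.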
Tags give direction and shape of the fitted curve or compound fluorescence and quenching.

UniProt Q92731, sequence (Q92731 whole entry, looked up): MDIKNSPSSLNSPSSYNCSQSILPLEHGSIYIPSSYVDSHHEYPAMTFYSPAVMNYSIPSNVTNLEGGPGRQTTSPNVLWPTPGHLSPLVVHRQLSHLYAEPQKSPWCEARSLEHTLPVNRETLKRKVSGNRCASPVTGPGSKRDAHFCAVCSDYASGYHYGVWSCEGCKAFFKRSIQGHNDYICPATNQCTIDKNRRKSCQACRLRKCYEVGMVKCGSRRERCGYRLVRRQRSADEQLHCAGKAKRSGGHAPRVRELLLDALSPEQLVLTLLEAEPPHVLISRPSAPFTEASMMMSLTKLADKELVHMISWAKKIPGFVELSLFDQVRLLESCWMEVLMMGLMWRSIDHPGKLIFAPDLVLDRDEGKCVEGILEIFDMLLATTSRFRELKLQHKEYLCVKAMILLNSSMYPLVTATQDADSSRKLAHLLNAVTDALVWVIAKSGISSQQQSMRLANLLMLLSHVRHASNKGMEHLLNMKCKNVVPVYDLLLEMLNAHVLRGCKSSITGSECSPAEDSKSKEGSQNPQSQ
UniProt P03372, sequence (P03372 whole entry, looked up): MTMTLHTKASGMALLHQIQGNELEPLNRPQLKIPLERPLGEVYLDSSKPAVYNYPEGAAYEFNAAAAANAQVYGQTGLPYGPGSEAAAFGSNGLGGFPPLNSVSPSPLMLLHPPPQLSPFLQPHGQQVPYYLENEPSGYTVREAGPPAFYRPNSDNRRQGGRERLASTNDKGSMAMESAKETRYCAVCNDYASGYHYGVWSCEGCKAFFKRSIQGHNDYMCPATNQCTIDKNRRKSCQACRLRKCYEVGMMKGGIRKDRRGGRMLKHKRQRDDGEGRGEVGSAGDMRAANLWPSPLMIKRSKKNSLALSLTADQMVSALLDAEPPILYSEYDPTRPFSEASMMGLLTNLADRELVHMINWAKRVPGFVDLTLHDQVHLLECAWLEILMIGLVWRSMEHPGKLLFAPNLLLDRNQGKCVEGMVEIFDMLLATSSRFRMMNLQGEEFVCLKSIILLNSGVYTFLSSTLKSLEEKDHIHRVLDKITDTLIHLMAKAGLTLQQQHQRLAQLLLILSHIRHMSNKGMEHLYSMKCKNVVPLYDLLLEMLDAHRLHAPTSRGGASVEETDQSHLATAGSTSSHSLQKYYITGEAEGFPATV
UniProt P10275, sequence (P10275 whole entry, looked up): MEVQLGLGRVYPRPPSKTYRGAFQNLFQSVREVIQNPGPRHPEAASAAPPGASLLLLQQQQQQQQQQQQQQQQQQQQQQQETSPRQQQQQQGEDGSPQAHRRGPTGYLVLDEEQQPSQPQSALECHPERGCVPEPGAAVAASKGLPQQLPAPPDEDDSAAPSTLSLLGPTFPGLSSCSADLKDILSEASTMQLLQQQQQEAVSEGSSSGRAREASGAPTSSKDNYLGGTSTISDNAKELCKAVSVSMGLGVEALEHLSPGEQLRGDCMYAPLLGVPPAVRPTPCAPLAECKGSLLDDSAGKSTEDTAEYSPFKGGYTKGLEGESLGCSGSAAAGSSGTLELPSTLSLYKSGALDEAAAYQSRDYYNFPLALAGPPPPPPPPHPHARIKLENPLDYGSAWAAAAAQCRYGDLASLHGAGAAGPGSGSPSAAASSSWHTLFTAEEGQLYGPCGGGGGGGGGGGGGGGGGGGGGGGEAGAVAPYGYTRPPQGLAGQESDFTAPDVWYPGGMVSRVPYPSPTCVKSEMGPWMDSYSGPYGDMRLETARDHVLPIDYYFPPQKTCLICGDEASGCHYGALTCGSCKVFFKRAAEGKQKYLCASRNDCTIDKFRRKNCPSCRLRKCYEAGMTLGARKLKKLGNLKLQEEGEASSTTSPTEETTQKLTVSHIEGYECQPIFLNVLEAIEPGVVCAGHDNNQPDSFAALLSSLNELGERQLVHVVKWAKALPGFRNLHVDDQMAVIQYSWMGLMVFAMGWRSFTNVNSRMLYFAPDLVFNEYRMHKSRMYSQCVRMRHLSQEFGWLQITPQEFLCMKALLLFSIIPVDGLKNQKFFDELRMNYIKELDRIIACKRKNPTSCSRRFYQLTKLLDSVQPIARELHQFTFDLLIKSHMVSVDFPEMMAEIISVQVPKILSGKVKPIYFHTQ

SMILES: C/C(CC(C)C)=N\O
- Potency [1]: inactive

SMILES: CC(=N\O)/C(C)=N/O
- Potency [1]: inactive

SMILES: O=C1CCCN1C1CCCCC1
- Potency [1]: inactive
- Potency [2]: inactive

SMILES: C=C[C@@]1(C)CC(=O)[C@]2(O)[C@@]3(C)[C@@H](O)CCC(C)(C)[C@@H]3[C@H](O)[C@H](OC(C)=O)[C@@]2(C)O1
- Potency [1]: inconclusive: 54.5 µM [cytotoxic, partial curve]
- Potency [3]: inconclusive: 54.5 nM [rising, full curve] and inconclusive: 1.5 µM [rising, full curve]
- Potency [4]: inconclusive: 29.8 µM [fluorescent]
- activity, negative = inhibition [4]: inconclusive: -27.4%
- Potency [5]: inconclusive: 26.6 µM [cytotoxic]
- Potency [6]: active: 63.6 nM and active: 256 nM

SMILES: C=CC(C)(CCC=C(C)C)OC(C)=O (stereo unspecified)
- Potency [1]: inactive
- Potency [7]: inactive

SMILES: Clc1ccccc1-c1nc(-c2ccncc2)no1
- Potency [1]: inactive
- Potency [8]: inconclusive: 10.6 µM [activator, partial curve]
- Potency [7]: inactive
- Potency [9]: inconclusive: 16.8 µM [rising, partial curve, poor fit]
- Potency [5]: inactive

SMILES: CCC(C)N(C)C(=O)c1cc2ccccc2c(-c2ccccc2Cl)n1 (stereo unspecified)
- Potency [1]: inactive
- Potency [3]: inconclusive: 31.4 µM [cytotoxic, partial curve, poor fit]
- Potency [10]: inconclusive: 39.5 µM [cytotoxic, partial curve, poor fit]
- Potency [9]: inconclusive: 44.4 µM [rising, single point]
- Potency [11]: inconclusive: 44.4 µM [cytotoxic, single point]

SMILES: C=CC(=O)OCC(CO)(COC(=O)C=C)COC(=O)C=C
- Potency [1]: active: 10.9 µM and active: 27.3 µM
- Potency [12]: active: 13.7 µM and inconclusive: 1 nM [inhibitor, single point]
- Potency [8]: inconclusive: 6.13 µM [activator, single point]
- Potency [7]: active: 1.54 µM and active: 3.86 µM
- Potency [4]: inconclusive: 15.4 µM [rising, partial curve] and inconclusive: 27.3 µM [rising, partial curve]
- Potency [11]: active: 13.7 µM and active: 19.3 µM

SMILES: Cc1cc(O)c2c(c1)C(=O)c1cc(O)cc(O)c1C2=O
- Potency [1]: inactive and active: 48.6 µM
- Potency [13]: active: 5.32 µM and active: 1.93 µM
- Potency [3]: inconclusive: 54.5 µM [cytotoxic, partial curve]
- Potency [10]: active: 54.5 µM
- Potency [7]: inconclusive: 33.6 µM [inhibitor, single point] and active: 34.4 µM
- Potency [9]: inconclusive: 29.9 µM [fluorescent, partial curve, poor fit] and active: 4.86 µM
- Potency [5]: active: 26.7 µM and active: 30.6 µM
- Potency [11]: inconclusive: 13.7 µM [cytotoxic, partial curve]

SMILES: COC(=O)C1=C(C)NC(C)=C(C(=O)OCCCN2CCC(c3ccccc3)(c3ccccc3)CC2)C1c1cccc([N+](=O)[O-])c1 (stereo unspecified)
- Potency [1]: inconclusive: 29.8 µM [cytotoxic, partial curve]
- Potency [14]: active: 21.1 µM
- Potency [15]: inconclusive: 3.98 µM [activator, single point]
- Potency [3]: active: 26.6 µM
- Potency [10]: inconclusive: 18.8 µM [cytotoxic, partial curve]
- Potency [9]: inconclusive: 37.6 µM [rising, single point]
- Potency [4]: inconclusive: 26.6 µM [rising, single point]

SMILES: C[C@@H](CN(C)C)CN1c2ccccc2Sc2ccccc21
- Potency [1]: inactive
- Potency [12]: inactive
- Potency [15]: inconclusive: 7.94 µM [activator, single point]
- Potency [3]: inconclusive: 23.7 µM [cytotoxic, partial curve]
- Potency [10]: inconclusive: 37.6 µM [cytotoxic, partial curve, poor fit]
- Potency [7]: inconclusive: 4.73 µM [inhibitor, full curve]
- Potency [4]: active: 23.7 µM
- Potency [5]: inconclusive: 33.5 µM [cytotoxic]
- Potency [16]: active: 21.1 µM

SMILES: CCOc1ccc(Cc2nccc3cc(OCC)c(OCC)cc23)cc1OCC
- Potency [1]: inconclusive: 29.8 µM [cytotoxic, single point]
- Potency [12]: active: 8.41 µM
- Potency [7]: inconclusive: 0.298 µM [inhibitor, single point]
- Potency [4]: inconclusive: 33.5 µM [inhibitor, single point]
